± gives the standard deviation of the averaged measurements. The list shows a part of the results.
System: PfAP2-LT AP2 domain (GST-tagged)
Test: gcPBM binding intensity (ln(normalized median fluorescence intensity)); higher = stronger DNA binding
Outline: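 Probes on an Agilent 4 × 180k array were primer-extended, double-stranded and 36 bp long, taken from intergenic genomic regions, with negative controls added. GST-tagged P. falciparum DNA-binding domains from E. coli, about 25 μg on average, were applied to the array for 1 h in 1× PBS containing 1% milk, 0.2 mg/ml BSA, 0.5% salmon testes DNA and 0.03% Triton X-100. Binding intensity, obtained after Alexa488 anti-GST antibody detection and a 488 nm scan, is the highest Masliner-normalised natural-log median intensity across replicate spots of either probe orientation.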

Sequence	gcPBM binding intensity (ln)
ATAAATTCATACATTTGTACACAAAAAAAAAAAAAA [XGTACX_site2435]	8.63 ± 0.42
CTCACATATATATATAGTACAATTTTTTTTTTTTTT [XGTACX_site5999]	8.59 ± 0.33
ATGTAGAATTGTAAATGTACATGAAACACATATTCA [XGTACX_site3436]	9.06 ± 0.38
TTTTTATGTGTATATTATTACATTTACATCTTTAAC [CACACA_negctrl_site1676]	8.88 ± 0.48
ACAAGACAACAAGGAAGTACTCATAAATATATTTGG [XGTACX_site1423]	9.02 ± 0.49
AATATATATATGTGTACACATCCAAAATAGGCATAC [CACACA_site5705]	9.21 ± 0.38
TGTAAATATAAAAGATAATGATAAAAGGGACATTTT [CACACA_negctrl_site661]	8.69 ± 0.4
ATATATATATAAATATGTACATATTTATATATGAAT [XGTACX_site3220]	8.77 ± 0.42
ATCTATATTATAATAACACACATATATTATAGTATA [CACACA_site6330]	8.79 ± 0.41
TATATATATATATTATGTACATATAAATATATTTTT [XGTACX_site1509]	8.73 ± 0.31
AAGAAAAATACTACGTGTACCAAACTTCCTACCAAC [XGTACX_site1426]	9.02 ± 0.39
TTATTTATTCTATGTGCATGTTATTTTTTTTTTTCG [TGCATGCA_site262]	8.87 ± 0.38
AAAAATAAGATATATACACACATATAAATATAAATA [CACACA_site7396]	9.11 ± 0.58
TTTGTATTAAAAAAAAAAAAAAAAAAAATGAATAAA [TGCATGCA_negctrl_site292]	8.15 ± 0.45
ATAACGGAAAAAAAAAGTACATGATATAAACATGAA [XGTACX_site8428]	8.8 ± 0.54
TTTTTTTTTTTTTTTTTTTTTTTTCATTTGATATTA [TGCATGCA_negctrl_site112]	8.37 ± 0.2
CTTTAAACCCTGAACACACACAAATACACCCAAAAA [CACACA_site4297]	9.52 ± 0.36
TATATATATATATGTGGTACATAAAATTATTATTTT [XGTACX_site4554]	9.29 ± 0.085
AGAGAGAAAGTTATAACATGCAACAATTTTTAGAAG [TGCATGCA_site1]	8.79 ± 0.52
ATAAAATTATCTACATGTACTCATATATATTTGTTT [XGTACX_site5911]	9.32 ± 0.35
TTATAATATATATGTAGTACTGTTTTTTTCTATTTT [XGTACX_site7749]	8.79 ± 0.54
TATTATTTTAAAAATGCATGTTCATATGAAATAATA [TGCATGCA_site969]	8.6 ± 0.48
TGTACAAATATGTACACACACACATATATATATATA [CACACA_site584]	9.88 ± 0.085

Sequence	gcPBM binding intensity (ln)
TTCGTTCTTTTATGCACACTCAACATATAAATTAAA [CACACA_site1209]	8.79 ± 0.42
AAGGAGCCTATGAACACACACATGTACATATATTAA [CACACA_site4084]	9.27 ± 0.38
ATACTATTATATATATGTACATATATATGATGCTCT [XGTACX_site1771]	9.05 ± 0.36
CATATACATACACATACACACATACACCCATACACA [CACACA_site8514]	9.68 ± 0.29
TGTAAAAAATTTAACACACACATATATAAATATGTA [CACACA_site7261]	9 ± 0.33
AATATATATTTATGTACACACTCCAATACAGATACA [CACACA_site5481]	8.96 ± 0.3
ATATGACGTAGTGGTGTACACACATGGTACCTTTAT [CACACA_site8436]	9.38 ± 0.35
AGTAAATAATTATATACATGCATTTACTAATATTTA [TGCATGCA_site952]	8.77 ± 0.41
CTTTATCTTCTCACGAAGATTGAATAAGGTATTCTT [XGTACX_negctrl_site307]	8.5 ± 0.49
CAGACAATAAAGAAGTGTACACATATATCAATAAAA [XGTACX_site4515]	9.26 ± 0.66
AAAAAAAAATACCTACGTACATATATATATTATATA [XGTACX_site3983]	8.75 ± 0.47
AAAAAAAAAAAACACACACACACACCCACAAAATAT [CACACA_site1447]	10.31 ± 0.028
TTAATGCACTTTATTACACACACTAGTTCATTACCT [CACACA_site2294]	9.47 ± 0.45
AAAAAATAAAAAAAAACACACACATACAAGCATATA [CACACA_site8451]	9.49 ± 0.26
AGAGAGAGAAATACAAGTACATGTGAAACCAATCTA [XGTACX_site2767]	9.04 ± 0.46
AAAAAAAAAAAAATTGCACACAAAAAAAAAAAAAAA [CACACA_site8644]	8.95 ± 0.4
TTCAACATAATATGCACACAAAAATTATGGAACGAA [CACACA_site2111]	9.22 ± 0.43
AAAAAAAACAAATACACACGCACACCGAAAAAAAAA [CACACA_site803]	9.6 ± 0.39
ATATAATAGTATATATGTACATATATTTAAATACTA [XGTACX_site1135]	8.82 ± 0.4
TATATTATAATTTGAAGTACATTTTAAATTAACTAA [XGTACX_site1013]	8.17 ± 0.48
ATATATGTATATATTTGTACATATAATATTTTTTAA [XGTACX_site6345]	8.61 ± 0.4
ATTTGTAATTTATTCAAACACACAATTTGGACCTTT [CACACA_site1062]	8.88 ± 0.43

Reference: the supplement of paper PMC11417369
